Experimental data taken from a compilation of properties of binary mixtures (doi:10.1021/acs.jced.0c00447).
Some of these densities may be calculated back from excess volumes.

Test: xn = mol fraction of the nth substance listed
Settings: 100 kPa

In the case of OCC(F)(F)F + CC[n+]1ccn(C)c1.N#C[N-]C#N, the mass density (303.15 K, x2 = 0) is reported as 1373.7 kg/m3, the mass density (313.15 K, x2 = 0) is reported as 1356.1 kg/m3 and the mass density (318.15 K, x2 = 0) is reported as 1347.2 kg/m3. The mass density (323.15 K, x2 = 0) was 1338 kg/m3.

Work on CC[n+]1ccn(C)c1.N#C[N-]C#N + OCC(F)(F)F yielded a mass density (298.15 K, x1 = 0.1031) of 1326.9 kg/m3, a mass density (298.15 K, x1 = 0.1957) of 1285.8 kg/m3 and a mass density (298.15 K, x1 = 0.4905) of 1192.7 kg/m3. It also gave a mass density (298.15 K, x1 = 0.5915) of 1169.5 kg/m3, a mass density (298.15 K, x1 = 0.6943) of 1148.9 kg/m3 and a mass density (298.15 K, x1 = 0.7956) of 1131.1 kg/m3. The mass density (298.15 K, x1 = 0.8915) was 1116 kg/m3, the mass density (298.15 K, x1 = 1) was 1100.7 kg/m3 and the mass density (303.15 K, x1 = 0.1957) was 1279.4 kg/m3. For the same compound, the mass density (303.15 K, x1 = 0.2936) was 1243.9 kg/m3, the mass density (303.15 K, x1 = 0.3935) was 1213.3 kg/m3 and the mass density (303.15 K, x1 = 0.4905) was 1188 kg/m3. It also gave a mass density (303.15 K, x1 = 0.6943) of 1144.9 kg/m3, a mass density (303.15 K, x1 = 0.7956) of 1127.3 kg/m3 and a mass density (303.15 K, x1 = 0.8915) of 1112.5 kg/m3. It also gave a mass density (303.15 K, x1 = 1) of 1097.4 kg/m3, a mass density (308.15 K, x1 = 0.1031) of 1312.3 kg/m3 and a mass density (308.15 K, x1 = 0.1957) of 1272.9 kg/m3. The mass density (308.15 K, x1 = 0.2936) was 1238.1 kg/m3, the mass density (308.15 K, x1 = 0.3935) was 1208.1 kg/m3 and the mass density (308.15 K, x1 = 0.4905) was 1183.2 kg/m3. It also gave a mass density (308.15 K, x1 = 0.5915) of 1160.8 kg/m3, a mass density (308.15 K, x1 = 0.6943) of 1140.9 kg/m3 and a mass density (308.15 K, x1 = 0.7956) of 1123.6 kg/m3. For the same compound, the mass density (308.15 K, x1 = 1) was 1094.1 kg/m3, the mass density (313.15 K, x1 = 0.1031) was 1304.9 kg/m3 and the mass density (313.15 K, x1 = 0.1957) was 1266.4 kg/m3. For the same compound, the mass density (313.15 K, x1 = 0.2936) was 1232.3 kg/m3, the mass density (313.15 K, x1 = 0.3935) was 1202.9 kg/m3 and the mass density (313.15 K, x1 = 0.4905) was 1178.5 kg/m3. The mass density (313.15 K, x1 = 0.5915) was 1156.4 kg/m3, the mass density (313.15 K, x1 = 0.6943) was 1136.9 kg/m3 and the mass density (313.15 K, x1 = 0.7956) was 1119.9 kg/m3. For the same compound, the mass density (313.15 K, x1 = 0.8915) was 1105.7 kg/m3, the mass density (318.15 K, x1 = 0.1031) was 1297.4 kg/m3 and the mass density (318.15 K, x1 = 0.3935) was 1197.6 kg/m3. The mass density (318.15 K, x1 = 0.4905) was 1173.7 kg/m3, the mass density (318.15 K, x1 = 0.5915) was 1152.1 kg/m3 and the mass density (318.15 K, x1 = 0.6943) was 1132.9 kg/m3. It also gave a mass density (318.15 K, x1 = 0.7956) of 1116.3 kg/m3, a mass density (318.15 K, x1 = 0.8915) of 1102.2 kg/m3 and a mass density (318.15 K, x1 = 1) of 1087.6 kg/m3. The mass density (323.15 K, x1 = 0.1031) was 1289.7 kg/m3, the mass density (323.15 K, x1 = 0.1957) was 1253.1 kg/m3 and the mass density (323.15 K, x1 = 0.2936) was 1220.4 kg/m3. It also gave a mass density (323.15 K, x1 = 0.3935) of 1192.3 kg/m3, a mass density (323.15 K, x1 = 0.4905) of 1168.9 kg/m3 and a mass density (323.15 K, x1 = 0.5915) of 1147.7 kg/m3. For the same compound, the mass density (323.15 K, x1 = 0.6943) was 1128.9 kg/m3, the mass density (323.15 K, x1 = 0.7956) was 1112.6 kg/m3 and the mass density (323.15 K, x1 = 0.8915) was 1098.8 kg/m3. It also gave a mass density (323.15 K, x1 = 1) of 1084.3 kg/m3.
